Data from the RNAGym collection of RNA variant scans (doi:10.7554/elife.90254).
The source gives no read counts; variants with many changes may rest on few reads.

B1: LINE1-mini (parent)
chain: GGCAGAGCUCAACACAGCGUGGCAAAGUGGCUGUGGCUAGACUGCC

Variants of: B1
Assay: self-cleavage, relative activity (ratio to wild type); higher = more cleavage; in vitro, sequencing; the parent is a self-cleaving ribozyme

Variant | self-cleavage
G2C G33A G35C C45G | 0.04
G2A C3A A6C | 1.48
C8G C15U G19A G33C | 0.01
G5A G21U G35U | 0.17
C8G C15A A25C A39G C46G | 0.05
C15A A16U G44C | 0.04
A12C A14C U20G G21U | 0.01
G5U C15G A16G | 0.05
U9G C10U A26U | 0.07
U9G C15U U20A G27U G33C | 0.14
C13A G21U A24C A26U G30C | 0.01
A6G C23G C46A | 0.05
C8G G40C A41G | 0.15
C10G A24G G33A | 0.03
A12U A14U A16G | 0.02
A6G A11U G30U C31U | 0.04
A6G A24U A41C C42U | 0.19
A11U A12U U20C G29A G33C A39U | 0.02
G2C G5U G7A U20G G22U C23A | 0.05
G17U U20C A25U G40U C42G | 0.01
C10G G21A C37G | 0.01
G7U U28A C46A | 0.03
C13G A14U U20G C37U C45U | 0.03
A6U U32G U34C A41C C46U | 0.06

Variant | self-cleavage
C10U G29C G35C | 0.02
U20A G21U C23A | 1.78
U9G G19U A39G | 0.05
G1A A11U A16G C18A | 0.02
G19U G27A G29U G35U C37U | 0.01
G1U A12G C13A G29A G36A | 0.03
C3G C15U G19U U20A A24G | 0.54
A4U C15U C18A A24C G27U G33U | 0.05
U20C G36A G40U C45G | 0.04
A4C G17U G30C | 0.05
C18U A24C G29A G33U | 0.02
C18G A39U U43G | 0.01
C3G C18A G21C G30A | 0.22
G2C C8U C10A U20A | 0.01
G1C A6G G7U A24C | 0.01
G17U G22U C31A U43C | 0.02
A16U A26C G33A C37U | 0.06
U20G C23U A25C | 0.31
A24C G40U C46A | 0.09
G1A A6G C37G U38G | 0.01
C13A A16C A26C | 0.05
A4U C8G A12C A14U | 0.07
A25G U32C C42A C45G C46U | 0
G2A A12U G21C G30A C37A | 0.97

Variant | self-cleavage
A4U C10A G17A U28G C42U | 0.05
C15G C23A A26G G36U | 0.02
G21A A26U G29A | 0.57
G1U A26U G44A C46U | 0.07
C3U G22U G40A | 0.23
G7A A24G G27U | 0.01
A12C C15G G27C | 0.01
C10G A14U A16U U32C | 0.02
U9A U28C C31G U32C | 0.12
A4G U32C C37G | 0.05
G7U G17U G33A G36A | 0.03
C10A C23A U32G | 0.04
G5U G27C U32G U34G U43A G44A C46A | 0
C10G C15U U28G G40U | 0.04
C13A A14C C15A G17A G22U C23A G35C | 0.02
G17C C23G A41C C46G | 0.03
G2C C18G C31U | 0.04
C3G G5U C8G U20G G40U | 0.05
G2U A6U A16C C42A | 0.09
A6U C18A G44C C46U | 0.04
G1A A25C G29A | 2.13
C3G A6C U9C | 0.01
G7C C15U U20A A25U G36A | 0.01
G1A C31G U32A A39G | 0.01

Variant | self-cleavage
A6C A16U G29A G33U | 0.04
C15U G22C G35C A41G | 0.19
U9G G17A U43A | 0.06
A6U A11C A14G G17C C18G | 0.02
G1A G22C C37U | 0.04
C8A C18G U32A G33C C45A | 0.12
C3G G5C U38G C45U | 0.03
G27C G29U G30U C31U | 1.51
C10G A11C G17C | 0.02
C15U C31U U38A C42U | 0.22
A26C C31A C42U | 0.13
C3U A4G C10A A14G | 0.03
G5U A16U C23U G35A C37G | 0.04
A12C C37A C46U | 0.01
A4G A11G G19A C23U U43A | 0.04
C18A C23A U28G G33C | 0.01
G1U G5U G27A | 0.1
G17C U20C G29U | 0.12
C3G A11U C13A G19A G30C | 0.02
C8U A16U A25C | 0.29
G29U A41U G44A | 0.08
G27U U32A C42A | 0.02
C3U G22A C45A | 0.12
C10A A14U U43C | 0.01

Variant | self-cleavage
A14U C31U G33A | 0.01
A12G C13G G35C | 0.01
C15G C18G U38A | 0.16
A6G G30A C46A | 0.09
A12U C42U C46U | 0.04
C3A A16U G19U A24U G30U | 0.04
C8A C10U U20C U32A G33C C42G | 0.04
A4G A6G C15U C18A G33C | 0.01
C8G C18G G33U | 0.01
A11U G22A G36U | 0.03
G27U A41U U43C | 0.07
U20C C23A G29A C45U | 1.35
U9G A14C A25U | 0.01
U9A A16C A39G | 0.02
G1A G2A G17C G21A G22A C31A A39C | 0.07
G1A C10A C46A | 0.03
G7A A16U G33C | 0.04
C8U A12U G35A G36U A39U | 0.1
C15U A26U G27A C37A | 0.08
A14U A26G U34A A41G | 0.1
A24C C31G G36A | 0.83
A12U G30A U43A | 0.03
C3G C13A C15A C18A U38A | 0.07
G35C C37U U38A | 0.06

Variant | self-cleavage
G1A G2C G44U | 0.05
A11U G21A U32G | 0.05
A11C G22C U28C C31A G35U | 0.01
G7A C13U G29A | 0.36
C18U U32C U43C | 0.03
C3A A6U C8U G17A C23U G35U | 0.27
G2A G5A U20A G35A | 0.51
G2A A4U U9A A16G G17U G27A G35U | 0.62
U20G G30A U38A | 0.82
G17A G21A U38C C45U | 0
A14C G22U A26C C45U | 0.06
G7C G29C C31U C42G | 0.05
A6U C8U G30U | 0.63
C10A A11U C13U C31U U43A G44A | 0
C13G G17A U28C | 0.02
A12U U32A G36A | 0.14
C3U G7A G22A | 0.04
C8G A12U C13G C37G G44U | 0.02
C10A A16U A24U | 0.03
C8U U9A G29C G33U A39C C46U | 0.18
U9C U20A C23G | 0.02
C3G A24G G44A | 0.1
C10G A14G G17U A24G A25U | 0.02
G1U C18A U20A G21C A39G | 0.03

Variant | self-cleavage
G21A A25G G27C G29A | 0.27
C3G A6G C15A | 0.08
G2A C15A C18A C23A | 0
G5U C18A G35U G36A G40A | 0.02
C15U G19U U20C C42A | 0.08
G5A C10A G22U A24U C45U C46U | 0.04
U34A C37U C45U | 0.04
G5U G21C G27A C42A G44U | 0.07
C13A A16G G33U | 0.11
A4G G5C C42U | 0.02
G22U A24U G29C C31U | 0.19
G5A A14C G35U | 0.25
G22A A24G U43C | 0.12
C3A G5A G22C G40C | 0.4
C8A G36U C42A | 0.09
G1C A24U G27U | 0.13
G1U C3A G36A | 2
A6C G30U G33A | 0.08
U9A A41C C42A | 0.02
A11U C23G A24C U28C U43A | 0.02
C3U A6C C10A G30U A41C C42G | 0.01
C8A A24U G33C G44U | 0.2
C8U G27A U28A | 0.18
